This is one part of the list.
Legend:
Test in all cases: glycan array binding signal (z-score within array); higher = stronger binding
Details in all cases: glycan notation: IUPAC condensed, linker removed
[1] = target: Gal(b1-4)GlcNAc(b1-3)Gal(b1-4)GlcNAc(b1-2)[Gal(b1-4)GlcNAc(b1-3)Gal(b1-4)GlcNAc(b1-6)]Man(a1-6)[Gal(b1-4)GlcNAc(b1-3)Gal(b1-4)GlcNAc(b1-2)Man(a1-3)]Man(b1-4)GlcNAc(b1-4)GlcNAc
In short: (§1)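 The binding signal is a Z-score computed within each array. Data were drawn from 3228 arrays in the Consortium for Functional Glycomics database, restricted to those with a known protein sequence. Scores were averaged over arrays of the same protein sequence at different concentrations or buffers, and over linkers, and negative values can be taken as non-binding.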

[2] = target: Gal(b1-4)GlcNAc(b1-3)Gal(b1-4)GlcNAc(b1-2)[Gal(b1-4)GlcNAc(b1-3)Gal(b1-4)GlcNAc(b1-6)]Man(a1-6)[Gal(b1-4)GlcNAc(b1-3)Gal(b1-4)GlcNAc(b1-2)Man(a1-3)]Man(b1-4)GlcNAc(b1-4)[Fuc(a1-6)]GlcNAc
In short: as §1

[3] = target: Gal(b1-4)GlcNAc(b1-3)Gal(b1-4)GlcNAc(b1-3)Gal(b1-4)GlcNAc
In short: as §1

[4] = target: Gal(b1-4)GlcNAc(b1-3)Gal(b1-4)GlcNAc(b1-3)Gal(b1-4)GlcNAc(b1-2)Man(a1-3)[Gal(b1-4)GlcNAc(b1-3)Gal(b1-4)GlcNAc(b1-3)Gal(b1-4)GlcNAc(b1-2)Man(a1-6)]Man(b1-4)GlcNAc(b1-4)GlcNAc
In short: as §1

[5] = target: Gal(b1-4)GlcNAc(b1-3)Gal(b1-4)GlcNAc(b1-3)Gal(b1-4)GlcNAc(b1-2)Man(a1-3)[Gal(b1-4)GlcNAc(b1-3)Gal(b1-4)GlcNAc(b1-3)Gal(b1-4)GlcNAc(b1-2)Man(a1-6)]Man(b1-4)GlcNAc(b1-4)[Fuc(a1-6)]GlcNAc
In short: as §1

[6] = target: Gal(b1-4)GlcNAc(b1-3)Gal(b1-4)GlcNAc(b1-3)Gal(b1-4)GlcNAc(b1-2)[Gal(b1-4)GlcNAc(b1-3)Gal(b1-4)GlcNAc(b1-3)Gal(b1-4)GlcNAc(b1-6)]Man(a1-6)[Gal(b1-4)GlcNAc(b1-3)Gal(b1-4)GlcNAc(b1-3)Gal(b1-4)GlcNAc(b1-2)Man(a1-3)]Man(b1-4)GlcNAc(b1-4)[Fuc(a1-6)]GlcNAc
In short: as §1

[7] = target: Gal(b1-4)GlcNAc(b1-3)Gal(b1-4)GlcNAc(b1-3)Gal(b1-4)GlcNAc(b1-3)Gal(b1-4)GlcNAc(b1-2)Man(a1-3)[Gal(b1-4)GlcNAc(b1-3)Gal(b1-4)GlcNAc(b1-3)Gal(b1-4)GlcNAc(b1-3)Gal(b1-4)GlcNAc(b1-2)Man(a1-6)]Man(b1-4)GlcNAc(b1-4)GlcNAc
In short: as §1

[8] = target: Gal(b1-4)GlcNAc(b1-3)Gal(b1-4)GlcNAc(b1-3)Gal(b1-4)GlcNAc(b1-3)Gal(b1-4)GlcNAc(b1-2)Man(a1-3)[Gal(b1-4)GlcNAc(b1-3)Gal(b1-4)GlcNAc(b1-3)Gal(b1-4)GlcNAc(b1-3)Gal(b1-4)GlcNAc(b1-2)Man(a1-6)]Man(b1-4)GlcNAc(b1-4)[Fuc(a1-6)]GlcNAc
In short: as §1

[9] = target: Gal(b1-4)GlcNAc(b1-3)Gal(b1-4)GlcNAc(b1-3)Gal(b1-4)GlcNAc(b1-3)Gal(b1-4)GlcNAc(b1-2)[Gal(b1-4)GlcNAc(b1-3)Gal(b1-4)GlcNAc(b1-3)Gal(b1-4)GlcNAc(b1-3)Gal(b1-4)GlcNAc(b1-6)]Man(a1-6)[Gal(b1-4)GlcNAc(b1-3)Gal(b1-4)GlcNAc(b1-3)Gal(b1-4)GlcNAc(b1-3)Gal(b1-4)GlcNAc(b1-2)Man(a1-3)]Man(b1-4)GlcNAc(b1-4)[Fuc(a1-6)]GlcNAc
In short: as §1

[10] = target: Gal(b1-4)GlcNAc(b1-3)Gal(b1-4)GlcNAc(b1-3)Gal(b1-4)GlcNAc(b1-3)Gal(b1-4)GlcNAc(b1-3)Gal(b1-4)GlcNAc(b1-2)Man(a1-3)[Gal(b1-4)GlcNAc(b1-3)Gal(b1-4)GlcNAc(b1-3)Gal(b1-4)GlcNAc(b1-3)Gal(b1-4)GlcNAc(b1-3)Gal(b1-4)GlcNAc(b1-2)Man(a1-6)]Man(b1-4)GlcNAc(b1-4)GlcNAc
In short: as §1

[11] = target: Gal(b1-4)GlcNAc(b1-3)Gal(b1-4)GlcNAc(b1-3)Gal(b1-4)GlcNAc(b1-3)Gal(b1-4)GlcNAc(b1-3)Gal(b1-4)GlcNAc(b1-2)Man(a1-3)[Gal(b1-4)GlcNAc(b1-3)Gal(b1-4)GlcNAc(b1-3)Gal(b1-4)GlcNAc(b1-3)Gal(b1-4)GlcNAc(b1-3)Gal(b1-4)GlcNAc(b1-2)Man(a1-6)]Man(b1-4)GlcNAc(b1-4)[Fuc(a1-6)]GlcNAc
In short: as §1

[12] = target: Gal(b1-4)GlcNAc(b1-3)Gal(b1-4)GlcNAc(b1-3)Gal(b1-4)GlcNAc(b1-3)Gal(b1-4)GlcNAc(b1-3)Gal(b1-4)GlcNAc(b1-2)[Gal(b1-4)GlcNAc(b1-3)Gal(b1-4)GlcNAc(b1-3)Gal(b1-4)GlcNAc(b1-3)Gal(b1-4)GlcNAc(b1-3)Gal(b1-4)GlcNAc(b1-6)]Man(a1-6)[Gal(b1-4)GlcNAc(b1-3)Gal(b1-4)GlcNAc(b1-3)Gal(b1-4)GlcNAc(b1-3)Gal(b1-4)GlcNAc(b1-3)Gal(b1-4)GlcNAc(b1-2)Man(a1-3)]Man(b1-4)GlcNAc(b1-4)[Fuc(a1-6)]GlcNAc
In short: as §1

[13] = target: Gal(b1-4)GlcNAc(b1-3)Gal(b1-4)GlcNAc(b1-3)Gal(b1-4)GlcNAc(b1-3)Gal(b1-4)GlcNAc(b1-3)Gal(b1-4)GlcNAc(b1-3)Gal(b1-4)GlcNAc(b1-2)Man(a1-3)[Gal(b1-4)GlcNAc(b1-3)Gal(b1-4)GlcNAc(b1-3)Gal(b1-4)GlcNAc(b1-3)Gal(b1-4)GlcNAc(b1-3)Gal(b1-4)GlcNAc(b1-3)Gal(b1-4)GlcNAc(b1-2)Man(a1-6)]Man(b1-4)GlcNAc(b1-4)GlcNAc
In short: as §1

[14] = target: Gal(b1-4)GlcNAc(b1-3)Gal(b1-4)GlcNAc(b1-3)GalNAc
In short: as §1

[15] = target: Gal(b1-4)GlcNAc(b1-3)Gal(b1-4)GlcNAc(b1-3)[Gal(b1-4)GlcNAc(b1-3)Gal(b1-4)GlcNAc(b1-6)]GalNAc
In short: as §1

[16] = target: Gal(b1-4)GlcNAc(b1-3)Gal(b1-4)GlcNAc(b1-6)[Gal(b1-3)]GalNAc
In short: as §1

[17] = target: Gal(b1-4)GlcNAc(b1-3)Gal(b1-4)[Fuc(a1-3)]GlcNAc(b1-3)Gal(b1-4)[Fuc(a1-3)]GlcNAc
In short: as §1

[18] = target: Gal(b1-4)GlcNAc(b1-3)GalNAc
In short: as §1

[19] = target: Gal(b1-4)GlcNAc(b1-3)[Fuc(a1-3)GlcNAc(b1-6)]Gal(b1-4)Glc
In short: as §1

[20] = target: Gal(b1-4)GlcNAc(b1-3)[Gal(b1-4)GlcNAc(b1-6)]Gal(b1-4)GlcNAc
In short: as §1

[21] = target: Gal(b1-4)GlcNAc(b1-3)[GlcNAc(b1-6)]Gal(b1-4)GlcNAc
In short: as §1

[22] = target: Gal(b1-4)GlcNAc(b1-6)Gal(b1-4)GlcNAc
In short: as §1

[23] = target: Gal(b1-4)GlcNAc(b1-6)GalNAc
In short: as §1

[24] = target: Gal(b1-4)GlcNAc(b1-6)[Gal(b1-3)]GalNAc
In short: as §1

[25] = target: Gal(b1-4)GlcNAc(b1-6)[Gal(b1-4)GlcNAc(b1-3)]GalNAc
In short: as §1

[26] = target: Gal(b1-4)GlcNAc6P
In short: as §1

[27] = target: Gal(b1-6)Gal
In short: as §1

[28] = target: Gal3S(b1-3)GalNAc
In short: as §1

[29] = target: Gal3S(b1-3)GlcNAc
In short: as §1

[30] = target: Gal3S(b1-3)[Fuc(a1-4)]GlcNAc
In short: as §1

[31] = target: Gal3S(b1-4)Glc
In short: as §1

[32] = target: Gal3S(b1-4)Glc6S
In short: as §1

[33] = target: Gal3S(b1-4)GlcNAc
In short: as §1

[34] = target: Gal3S(b1-4)[Fuc(a1-3)]Glc6S
In short: as §1

[35] = target: Gal3S(b1-4)[Fuc(a1-3)]GlcNAc
In short: as §1

[36] = target: Gal3S(b1-4)[Fuc(a1-3)]GlcNAc6S
In short: as §1

[37] = target: Gal3S4S(b1-4)GlcNAc
In short: as §1

B1: Cohesin-hDC-ASGPR (Homo sapiens) (protein)
chain: LDDLDAVRIKVDTVNAKPGDTVRIPVRFSGIPSKGIANCDFVYSYDPNVLEIIEIEPGDIIVDPNPDKSFDTAVYPDRKIIVFLFAEDSGTGAYAITKDGVFATIVAKVKEGAPNGLSVIKFVEVGGFANNDLVEQKTQFFDGGANVGDTTEPATPTTPVTTPTTTDDLDAASQNSKFQRDLVTLRTDFSNFTSNTVAEIQALTSQGSSLEETIASLKAEVEGFKQERQAGVSELQEHTTQKAHLGHCPHCPSVCVPVHSEMLLRVQQLVQDLKKLTCQVATLNNNASTEGTCCPVNWVEHQDSCYWFSHSGMSWAEAEKYCQLKNAHLVVINSREEQNFVQKYLGSAYTWMGLSDPEGAWKWVDGTDYATGFQNWKPGQPDDWQGHGLGGGEDCAHFHPDGRWNDDVCQRPYHWVCEAGLGQTSQESHHHHHH
[1]
  glycan array binding signal (z-score): 1.87
[2]
  glycan array binding signal (z-score): -0.424
[3]
  glycan array binding signal (z-score): -0.492
[4]
  glycan array binding signal (z-score): -0.325
[5]
  glycan array binding signal (z-score): -0.426
[6]
  glycan array binding signal (z-score): -0.427
[7]
  glycan array binding signal (z-score): -0.386
[8]
  glycan array binding signal (z-score): -0.433
[9]
  glycan array binding signal (z-score): -0.246
[10]
  glycan array binding signal (z-score): -0.419
[11]
  glycan array binding signal (z-score): -0.366
[12]
  glycan array binding signal (z-score): -0.362
[13]
  glycan array binding signal (z-score): -0.398
[14]
  glycan array binding signal (z-score): -0.415
[15]
  glycan array binding signal (z-score): -0.302
[16]
  glycan array binding signal (z-score): -0.39
[17]
  glycan array binding signal (z-score): -0.385
[18]
  glycan array binding signal (z-score): -0.5
[19]
  glycan array binding signal (z-score): -0.486
[20]
  glycan array binding signal (z-score): -0.505
[21]
  glycan array binding signal (z-score): -0.407
[22]
  glycan array binding signal (z-score): -0.462
[23]
  glycan array binding signal (z-score): 1.17
[24]
  glycan array binding signal (z-score): 1.23
[25]
  glycan array binding signal (z-score): -0.468
[26]
  glycan array binding signal (z-score): -0.477
[27]
  glycan array binding signal (z-score): -0.491
[28]
  glycan array binding signal (z-score): -0.05
[29]
  glycan array binding signal (z-score): -0.202
[30]
  glycan array binding signal (z-score): -0.306
[31]
  glycan array binding signal (z-score): 0.565
[32]
  glycan array binding signal (z-score): 0.42
[33]
  glycan array binding signal (z-score): -0.195
[34]
  glycan array binding signal (z-score): -0.472
[35]
  glycan array binding signal (z-score): -0.417
[36]
  glycan array binding signal (z-score): 0.512
[37]
  glycan array binding signal (z-score): -0.497

Reference: the supplement of paper PMC8728848
